From PMC4336329 (PLoS ONE, 2015)
Among all 310,000 compounds or so, about 2,200 (0.71%) showed an effect of 50% or more. Effects have a minus sign here. This is one part of the list.

What follows are compounds tested against human ether-à-go-go-related gene (hERG) potassium channel (human, UniProt Q12809) (assay: primary screen, population patch clamp on CHO cells stably expressing hERG).
human ether-à-go-go-related gene (hERG) potassium channel, sequence (Q12809 whole entry, looked up): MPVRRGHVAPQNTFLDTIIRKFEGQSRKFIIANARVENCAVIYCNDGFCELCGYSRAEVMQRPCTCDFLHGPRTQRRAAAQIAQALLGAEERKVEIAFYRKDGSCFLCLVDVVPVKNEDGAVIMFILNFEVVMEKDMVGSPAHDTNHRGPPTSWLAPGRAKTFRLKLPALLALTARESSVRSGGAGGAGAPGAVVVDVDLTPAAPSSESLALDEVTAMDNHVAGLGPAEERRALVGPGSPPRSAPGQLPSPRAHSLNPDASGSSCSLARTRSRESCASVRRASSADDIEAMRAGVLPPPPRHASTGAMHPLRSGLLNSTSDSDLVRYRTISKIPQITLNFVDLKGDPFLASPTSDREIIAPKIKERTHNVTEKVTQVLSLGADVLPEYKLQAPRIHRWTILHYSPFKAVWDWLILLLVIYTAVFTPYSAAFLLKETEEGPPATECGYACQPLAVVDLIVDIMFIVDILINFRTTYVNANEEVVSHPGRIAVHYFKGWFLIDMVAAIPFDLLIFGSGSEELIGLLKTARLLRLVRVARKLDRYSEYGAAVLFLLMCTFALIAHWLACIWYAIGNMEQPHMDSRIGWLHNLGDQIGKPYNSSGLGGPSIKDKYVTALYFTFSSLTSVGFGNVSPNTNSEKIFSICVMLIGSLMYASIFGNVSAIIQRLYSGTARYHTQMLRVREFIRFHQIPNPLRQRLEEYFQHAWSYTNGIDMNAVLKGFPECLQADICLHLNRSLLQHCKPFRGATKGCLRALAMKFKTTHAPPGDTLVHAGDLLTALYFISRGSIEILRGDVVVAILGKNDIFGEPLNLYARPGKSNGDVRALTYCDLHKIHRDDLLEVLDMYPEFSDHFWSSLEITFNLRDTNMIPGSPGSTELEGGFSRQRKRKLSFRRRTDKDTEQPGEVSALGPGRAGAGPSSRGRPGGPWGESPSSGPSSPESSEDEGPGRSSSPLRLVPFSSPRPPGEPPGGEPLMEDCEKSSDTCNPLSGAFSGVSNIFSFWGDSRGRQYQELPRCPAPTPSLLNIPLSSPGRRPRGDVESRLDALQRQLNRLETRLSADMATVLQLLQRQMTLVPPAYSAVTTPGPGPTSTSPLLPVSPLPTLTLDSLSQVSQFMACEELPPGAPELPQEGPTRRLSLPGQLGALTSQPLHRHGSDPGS

Structure (SMILES) | hERG current change (%, negative = inhibition) at 1uM [%]
CCOC(=O)c1[nH]c(C)c(C(=O)NCCCOC(C)C)c1C | 14.7
O=C(CN1CCCCCC1)NCC1CCCO1.O=C(O)C(=O)O (stereo not drawn) | 13.7
Cc1oc(-c2ccccc2F)nc1CS(=O)(=O)CC(=O)NCCCN(C)C1CCCCC1 | 9.7
CSc1ccc(CN(C)C(=O)C(c2ccccc2)c2ccccc2)cc1 | 5.46
CCN(CCn1cccn1)C(=O)c1cc(COc2ccccc2SC)on1 | 3.51
CCC(=O)Nc1ccc2nc3c(=O)[nH]c(=S)[nH]c3nc2c1 | 20.7
C=CCn1c(SCC(=O)NC2CCCCC2)nc2ccccc2c1=O | 15
Brc1ccc2[nH]c3nc(SCCN4CCOCC4)nnc3c2c1 | 9.78
CCN(CC)C(=O)CSc1nnc(-c2ccc(O)cc2)n1CC1CCCO1 (stereo not drawn) | 21.8
Cc1ccccc1NC(=O)C(=O)NCC1CCCN1S(=O)(=O)c1cccs1 (stereo not drawn) | 20.3
O=C(CSc1nc2cccnc2n1Cc1ccccc1)NC1CCCCC1 | -15.6
Cc1cc(C)cc(S(=O)(=O)c2cnc3ccccc3n2)c1 | 26.8
Cc1nc(C)c(-c2csc(NCCc3ccccc3)n2)s1.O=C(O)C(=O)O | 14.2
COc1ccc(OC)c(C(C)NC(=O)C(C)Cc2ccccc2)c1 (stereo not drawn) | 11
Cc1ccc(C(=O)N2c3ccc(F)cc3CCC2C)o1 (stereo not drawn) | 14.1
COc1ccccc1N1CCN(C(=O)CSc2nnc3c4ccccc4n(CC(=O)O)c3n2)CC1 | 8.39
Cc1cccc(NC(=O)CSc2nc(=O)n(CCN3CCOCC3)c3c2CCCC3)c1C | 7.72
CCOc1cc2c(cc1OCC)-n1cccc1C(c1cccc(OCC)c1O)NC2.Cl (stereo not drawn) | 10.6
CN(c1ccccc1)S(=O)(=O)c1ccc(C(=O)Nc2nnc(C3CC3)o2)cc1 | 6.03

Structure (SMILES) | hERG current change (%, negative = inhibition) at 1uM [%]
O=c1c2ccccc2nc2n1CC/C2=C\N1CCN(c2ccc([N+](=O)[O-])cc2)CC1 | -62.1
CCN(CC(=O)Nc1c(F)cccc1F)C(=O)c1cc2c(cc1Cl)N1CCCCCC1=NS2(=O)=O | 19.5
COC(=O)c1cc(NC(=O)CCc2c(C)nc3ncnn3c2C)cc(C(=O)OC)c1 | -1.04
O=C(Nc1ccncc1)C1CCN(S(=O)(=O)c2ccccc2)CC1 | 9.44
CCn1c(SC/C=C/c2ccccc2)nnc1-c1cccs1 | -12.9
C/C(=N\Nc1cc(C(F)(F)F)ccc1Cl)c1ccncc1 | 15.4
CN(C)c1ccc(/C=C2\SC(=S)N(Nc3ncc(C(F)(F)F)cc3Cl)C2=O)cc1 | 0.807
CCOC(=O)C1CCCN(S(=O)(=O)c2ccc3ccccc3c2)C1 (stereo not drawn) | -3.9
CCN1CCN(C(c2cccs2)C(C)NC(=O)C(C)C)CC1 (stereo not drawn) | 12.9
O=C(O)CNS(=O)(=O)c1ccc2[nH]c(=O)c(=O)[nH]c2c1 | 14.6
O=C(CSc1cccc[n+]1[O-])c1ccc(Cl)cc1 | 0.232
O=C(CCc1ccccc1)Nc1ccc(S(=O)(=O)N2CCOCC2)cc1 | 6.41
Cc1cccc(Nc2nc(C)cc(C)c2C#N)c1 | 10.9
O=C(CS(=O)(=O)c1ccccc1)Nc1nnc(C(F)(F)F)s1 | 19.3
O=C(NC(Cc1ccccc1)c1ccc2c(c1)OCCCO2)c1ccc(F)cc1 (stereo not drawn) | 7.49
C=CCN=C(SCC(=O)c1ccc(Cl)cc1)c1c(O)n(C)c(=O)n(C)c1=O | 1.99
CC(c1ccccc1)N(C)C(=O)CSc1nnc(C2CC2)n1C1CC1 (stereo not drawn) | 3.78
CCc1ccc(C(=O)NNc2cc(Cl)ccc2Cl)cc1 | 12.5
CC(=O)c1cc(C(C)=O)c(C)nc1C | 12.2

Structure (SMILES) | hERG current change (%, negative = inhibition) at 1uM [%]
O=C(CSc1cc(Cl)ccc1Cl)NC1CCCC1 | 8.37
O=C1CCC(C(=O)N2CCSCC2)CN1Cc1ccc(Cl)cc1 (stereo not drawn) | 12.3
Cc1ccc(NC(=O)c2ccc(C)c(S(=O)(=O)N3CCCCC3)c2)nc1 | 8.78
CN(C)S(=O)(=O)c1cc(NC2CC(=O)N(c3ccc(F)cc3)C2=O)ccc1Cl (stereo not drawn) | -20.9
O=c1c2ccccc2nc(CNc2ccccc2)n1-c1ccccc1 | 12.9
CC(=O)c1cccc(OCC(=O)Nc2cc(S(=O)(=O)N3CCOCC3)ccc2N2CCCC2)c1 | 10.9
CCc1ccccc1N1C[C@@]23C=C[C@@H](O2)C(C(=O)OCC(C)C)[C@H]3C1=O (stereo partly drawn) | -0.721
Cc1cc(NC(=O)Cc2cccs2)no1 | 11.1
COC(=O)CSc1nnc(CNC(=O)c2cc(OC)c(OC)c(OC)c2)n1C | -0.921
O=C(COc1ccccc1Cl)NCc1nc(-c2ccccc2)no1 | 13.2
CCCN(C1CCS(=O)(=O)C1)S(=O)(=O)c1ccc(F)cc1 (stereo not drawn) | 5.9
CCCCOC(=O)Nc1ccc(C(C)C)cc1 | 9.54
COC(=O)c1c(NC(=O)C2CC(=O)NN2Cc2ccccc2)sc(C)c1C (stereo not drawn) | 7.96
CCSc1ccccc1C(=O)N1CCN(c2ccccc2F)CC1 | 20.7
COCCN(C(=O)CSc1cc(C)c2ccccc2n1)c1c(N)n(CC(C)C)c(=O)[nH]c1=O | 7.69
Cc1cc(C)n(-c2ccc(C(C)C)cc2)c(=O)c1C#N | 16.9
O=C(Nc1nc2ccc(F)cc2s1)C1CCCO1 (stereo not drawn) | 2.03
COC(=O)CNC(c1ccccc1Cl)c1cc(Br)ccc1NC(=O)CCN1CCOCC1 (stereo not drawn) | -1.11
O=C(CN1CCN(S(=O)(=O)c2cccs2)CC1)NCC1CCCCC1 | -8.89
